Hit rate of the full screen: of about 150,000 compounds, about 540 (0.36%) showed an effect of 50% or more. The list shows a part of the results.

Results on 42 molecules are retold here after ChEMBL document CHEMBL4888484, “Replenishing the malaria drug discovery pipeline: Screening and hit evaluation of the MMV Hit Generation Library 1 (HGL1) against asexual blood stage Plasmodium falciparum ,using a nano luciferase reporter read-out” (2022).

The subject of this test is Plasmodium falciparum. The test can be described thus: Primary screen in NF54 nanoGlo assay, in single point, at 2uM, 72h; a lower Z score goes with more inhibition. As to conditions: timepoint 72 hour. The test is classed as functional, Erythrocyte.
In the case of `Cc1ccc(C2CC(NCc3nnn(C)n3)C2)cc1` (centres undefined), the “% Inhibition” value is -7% and the Z score stood at 0.66.
As to `Cc1cc(NC(=O)[C@H](Oc2ccccc2F)c2ccccc2)no1`, the “% Inhibition” value is on record as -12% and the Z score stood at 1.59.
For the molecule `CC(C)c1nnc(Cn2c(=O)c(Cl)cc3ccccc32)s1`, the “% Inhibition” value is recorded as 1% and the Z score was -0.08.
For the molecule `Cc1ccccc1OC[C@H](O)C(=O)N1CCN(C(=O)c2ccco2)CC1`, the “% Inhibition” value is -1% and the Z score is on record as 0.09.
Turning to `Clc1ccc([C@@H]2CN(Cc3nnsc3Cl)CCO2)cc1`, the “% Inhibition” value is -6% and the Z score came out at 0.63.
Take `COc1ccc(NS(=O)(=O)c2cc(-c3cnn4c(C)cc(C)nc34)ccc2OC)c(C)c1`: the “% Inhibition” value is given as -6% and the Z score was 0.57.
Taken in the same sequence, the figures for `O=C1N[C@H](c2ccccc2)C(=O)N2C[C@H](O)C[C@@H]12` were -6% and 0.79.
Consider `CONC(=O)NCCc1cc(C)cc(C)c1`, for which the “% Inhibition” value was -2% and the Z score came to 0.44.
With `CC1CN(C(=O)c2nccc3ccccc23)C(C)CO1` (centres undefined), the “% Inhibition” value worked out at 0% and the Z score worked out at 0.04.
`Cc1ccc(NCc2ccc3n2[C@@H](C)CC3=O)cc1`: the “% Inhibition” value is listed as -4% and the Z score turned out to be 0.51.
For `CCCNC(=O)NCCn1c(C)cnc1C1CCC1` the same measures were -23% and 2.64.
Taken in the same sequence, the figures for `Cc1cc(C)n(C)c(=O)c1C(=O)NCc1nc(C(C)(C)C)cs1` were -5% and 0.95.
For `O=C1CC[C@@]2(CCN(C(=O)Nc3cccc(Cl)c3)C2)N1`, the “% Inhibition” value is -8% and the Z score is on record as 1.16.
On to `O=C(C1CCN(c2cc3c(nn2)CCC3)CC1)N1CCN(C(=O)[C@@H]2CCCO2)CC1`, for which the “% Inhibition” value came out at 6% and the Z score was -0.82.
For `CC1CN(C2CCC(c3ccccc3)CC2)CC(C)O1` (centres undefined) the same measures were -10% and 1.9.
As for `CC(C)c1cc(N(C)CC(=O)Nc2sccc2C(N)=O)n[nH]1`, the “% Inhibition” value is listed as -9% and the Z score is recorded as 1.38.
For `O=S(=O)(CCO)CCc1ncc(-c2ccccc2)o1` the same measures were -8% and 1.25.
As for `O=C(NC(CO)CC1CCCC1)C1Cc2ccccc2O1` (centres undefined), the “% Inhibition” value worked out at 5% and the Z score was -0.48.
For `CCNc1ccc(Cl)cc1C(=O)N1C[C@H]2CN(C)C[C@H]2C1`, the “% Inhibition” value was found to be 0% and the Z score came to 0.05.
On to `CCCCn1c(C(=O)NCC(C)C)cc2cc(NC(=O)c3ccc(F)cc3)ccc21`, for which the “% Inhibition” value was 0% and the Z score is -0.05.
For the molecule `CCn1nc(C2CC2)cc1C(=O)N(C)c1nsc2ccccc12`, the “% Inhibition” value is 7% and the Z score is -1.08.
Consider `CC1CCN(c2nc(N3CCC(C)CC3)nc(N3CC4CC(C3)c3cccc(=O)n3C4)n2)CC1` (centres undefined), for which the “% Inhibition” value is -5% and the Z score was 0.7.
Turning to `CCc1cc(N2CCC[C@H](c3nnc(CN4CCCC4)n3C)C2)nc(C)n1`, the “% Inhibition” value came to 2% and the Z score was -0.47.
For `Cn1c(=O)c2c(nc(NCCc3ccc(O)cc3)n2Cc2ccc(Cl)cc2Cl)n(C)c1=O` the same measures were -8% and 1.25.
Take `Cc1ccccc1NC(=O)Cn1cnc2c(NC(C)C)ncnc21`: the “% Inhibition” value is listed as -18% and the Z score turned out to be 2.23.
Taken in the same sequence, the figures for `COc1cc2c(cc1OC)[C@@H](NC(=O)c1cc(C(C)(C)C)[nH]n1)CC2` were 4% and -0.53.
Taken in the same sequence, the figures for `CCn1ncnc1[C@H](C)NC(=O)c1cccc(C(C)=O)c1` were -20% and 2.6.
With `C[C@H](CC(=O)O)CC(=O)NCCC1=CCCCC1`, the “% Inhibition” value was -11% and the Z score is recorded as 2.08.
Taken in the same sequence, the figures for `C[C@H]1CCCN(S(=O)(=O)NCCc2cnn(-c3ccccc3)c2)C1` were -11% and 0.99.
As to `CN(C)c1noc(CN2CC(O)C(O)C2)n1` (centres undefined), the “% Inhibition” value is listed as -12% and the Z score was found to be 1.8.
Taken in the same sequence, the figures for `CCCc1nsc(NC(=O)N2CCC[C@@H]2CCCO)n1` were -16% and 3.12.
Regarding `Cc1ccc(CC(=O)N(C[C@H]2CN(C)CCO2)c2nccs2)cc1`, the “% Inhibition” value is 2% and the Z score is given as -0.21.
Turning to `CN(C)S(=O)(=O)n1cc(/C=C(\NC(=O)c2ccccc2F)C(=O)NC2CC2)c2ccccc21`, the “% Inhibition” value is -12% and the Z score came to 1.26.
As to `Cc1ccc(C)c(/N=C(\NCCc2c(C)nn(C)c2C)NC(=O)c2cccc(F)c2)c1`, the “% Inhibition” value was -1% and the Z score is listed as 0.22.
On to `O=C(Nc1cc2c(cc1NC(=O)c1cccs1)OCCO2)c1cccc(C(F)(F)F)c1`, for which the “% Inhibition” value is -4% and the Z score is reported as 0.8.
For `CC(C)c1ocnc1C(=O)N[C@@H](C)c1cccc(-n2cccn2)c1`, the “% Inhibition” value is 0% and the Z score turned out to be 0.06.
In the case of `C[C@H]1CCCN(Cc2ccc3ncccc3c2)C1`, the “% Inhibition” value is 1% and the Z score is given as -0.19.
As for `CC(C)(C)OC(=O)N1CCN(CC(=O)N2CCNC(=O)C2)C2(CCCCC2)C1`, the “% Inhibition” value was found to be 0% and the Z score stood at 0.01.
With `O=c1c2cnccc2ncn1CCC[C@H]1CCOC1`, the “% Inhibition” value is listed as -14% and the Z score was 1.55.
For `COc1ccc(OC)c(NC(=O)[C@@H]2CCN(S(C)(=O)=O)c3ccccc3O2)c1` the same measures were 8% and -1.04.
For `Cc1cc(C)n(S(=O)(=O)c2ccc3c(c2)OCCO3)n1` the same measures were 39% and -5.7.
`CCN1CC(NC(=O)N2Cc3cccnc3N3CCC[C@@H]3C2)CC1=O` (some centres undefined): the “% Inhibition” value is -4% and the Z score came to 0.54.

What is called % Inhibition is the change of the read-out against control, counted positive when it falls.
